Values joined by “and” are separate entries in the source; they are usually repeats but may differ in a detail not shown here. Identical values can stand only once.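 1) Cells in 96-well plates. 2) Compound, 48 h, 5 concentrations. 3) Linear interpolation between surrounding doses. 4) Unreached endpoint = highest concentration. GI50 is the concentration that inhibits growth by half. The concentration for full growth arrest is given as TGI.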
Test system: NCI-H322M lung
Experiment: growth of human tumour cells (NCI), 48 h

Point of comparison: `C#C[C@]1(O)CC[C@H]2[C@@H]3CC=C4c5nc(Nc6ccccn6)sc5CC[C@]4(C)[C@H]3CC[C@@]21C`, GI50 2.35 µM. Against it:
- C/C(=N\O)c1ccc(Nc2cc(-n3nnc4ccccc43)nc3ccccc23)cc1 — within 1.5-fold, 2.97 µM
- Clc1ccc([O][In]([O]c2ccc(Cl)cn2)[O]c2ccc(Cl)cn2)nc1 — higher, > 100 µM
- COc1cc(-c2csc(NC(=O)c3cc(C(F)(F)F)cc(C(F)(F)F)c3)n2)cc(OC)c1OC — within 1.5-fold, 3.33 µM
- CC(C)N(C(C)C)[PH+]1O[PH+](N(C(C)C)C(C)C)O[PH+](N(C(C)C)C(C)C)O[PH+](N(C(C)C)C(C)C)O[PH+](N(C(C)C)C(C)C)O1.[C-]#[O+].[C-]#[O+].[C-]#[O+].[C-]#[O+].[C-]#[O+].[C-]#[O+].[C-]#[O+].[Cr].[Cr] (stereo unspecified) — higher, > 100 µM
- COc1ccc2nc(-c3ccccc3)cc(Nc3cccc(/C(C)=N\O)c3)c2c1 — within 1.5-fold, 2.85 µM
- Fc1cccc(COc2ccc(Nc3ncnc4sc(-c5ccco5)cc34)cc2Cl)c1 — higher, > 25 µM
- COc1cc2cc(Oc3ccc(NC(=O)c4cccc(C(F)(F)F)c4)cc3)c(C)nc2cc1OC — higher, > 100 µM
- NS(=O)(=O)c1ccc(N2Cc3cc(Cl)ccc3OC3=C2C(=O)N(CC2CCCCC2)C3=O)cc1 — within 1.5-fold, 1.78 µM
- CNC(=O)Nc1ccc(-c2nc(N3CCOCC3)nc3c2cnn3C2CCOCC2)cc1 — 9.3-fold lower, 0.252 µM
- Nc1cc(N)c2nc(-c3ccccc3)c(Oc3ccc(F)cc3)nc2c1 — 7.2-fold higher, 16.9 µM
- O=C1/C(=C/c2ccc(Cl)cc2)CCCc2ccc(F)cc21 — 8.2-fold higher, 19.3 µM
- CCOC(=O)c1c(NC(=O)c2ccc(C(C)C)cc2)sc2c(CN(C)C)c(O)ccc12 — within 1.5-fold, 2.05 µM

Point of comparison: `COc1ccc2nc(-c3ccccc3)cc(Nc3cccc(/C(C)=N\O)c3)c2c1`, TGI 9.68 µM. Against it:
- C/C(=N\O)c1ccc(Nc2cc(-n3nnc4ccccc43)nc3ccccc23)cc1 — 2.4-fold higher, 23.7 µM
- CCCCCCCCCCCCNC(=O)CCC(NC(=O)c1ccc(N(C)Cc2cnc3nc(N)nc(N)c3n2)cc1)C(=O)NCCCCCCCCCCCC (stereo unspecified) — higher, > 100 µM
- Cc1cc(Cl)ccc1NC(=O)C(=O)Cc1nc2ccc(C(=O)c3ccccc3)cc2[nH]c1=O — higher, > 100 µM
- CC1(C)C(=O)C(O)=CC2C1=CCC1C2(C)C(=O)CC2(C)C(C(C)(O)C(=O)CC(O)C(C)(C)O)C(O)CC12C (stereo unspecified) — higher, > 97.4 µM
- Clc1ccc([O][In]([O]c2ccc(Cl)cn2)[O]c2ccc(Cl)cn2)nc1 — higher, > 100 µM
- Oc1c(OCc2nnc(CCCCCCCCc3nnc(COc4ccc5ccccc5c4O)o3)o2)ccc2ccccc12 — higher, > 100 µM
- Clc1ccccc1NN(Cc1ccccn1)c1ccccc1Cl — 5.9-fold higher, 57.2 µM
- O=C1N[C@@H]2CCC[C@@H]2[C@@H]1c1ccc(Cl)cc1 — higher, > 100 µM
- Cc1cc(S(=O)(=O)Nc2n[nH]c(Nc3ccccc3)n2)c(SCC(=O)O)cc1Cl — higher, > 100 µM
- C#C[C@]1(O)CC[C@H]2[C@@H]3CC=C4c5nc(Nc6ccccn6)sc5CC[C@]4(C)[C@H]3CC[C@@]21C — within 1.5-fold, 10.9 µM
- CN(C)CCNc1c([N+](=O)[O-])sc2ccc(Cl)cc12 — higher, > 100 µM
- NCCN(CCN(C(=O)Nc1ccccc1)c1ccccc1)C(=O)Nc1ccccc1 — 7.9-fold higher, 76.8 µM
- O=c1[nH]c(=O)n(C2CC(O)C(CO)O2)cc1OC/C=C/Cc1ccccc1 (stereo unspecified) — higher, > 100 µM
- CC1(C)O[C@H]2OC3CCC(=O)CC3(O)[C@H]2O1 (stereo partly specified) — higher, > 100 µM
- CCCCN1C(=O)CC2[C@@H]3CCc4cc(OC)ccc4C3CC[C@]2(C)C1=O (stereo partly specified) — higher, > 10 µM
- CC(C)c1ccc2nc3ccc(C(=O)NCCN(C)C)cn3c(=O)c2c1 — 8.2-fold higher, 79.7 µM
- COc1cc(-c2csc(NC(=O)c3cc(C(F)(F)F)cc(C(F)(F)F)c3)n2)cc(OC)c1OC — higher, > 100 µM
- Cc1cn(CCCCCOC(=O)NC(CCCNC(N)=O)C(=O)O)c(=O)[nH]c1=O (stereo unspecified) — higher, > 100 µM
- COc1ccc(C(C2=C(C)C(=O)c3ccccc3C2=O)c2ccc(C(C)C)cc(=O)c2O)cc1 (stereo unspecified) — higher, > 100 µM
- CC(C)N(C(C)C)[PH+]1O[PH+](N(C(C)C)C(C)C)O[PH+](N(C(C)C)C(C)C)O[PH+](N(C(C)C)C(C)C)O[PH+](N(C(C)C)C(C)C)O1.[C-]#[O+].[C-]#[O+].[C-]#[O+].[C-]#[O+].[C-]#[O+].[C-]#[O+].[C-]#[O+].[Cr].[Cr] (stereo unspecified) — higher, > 100 µM
- Cc1cnc2[nH]c(-c3cccc(F)c3)cc(=O)c2c1 — higher, > 100 µM
- O=P1(C(O)/C=C/c2ccccc2)N(Cc2ccccc2)[C@@H]2CCCC[C@H]2N1Cc1ccccc1 (stereo partly specified) — 5.3-fold higher, 51.4 µM
- Cn1nc2c(c1N)Cc1c(nn(C)c1N)-c1ccccc1-2 — higher, > 100 µM
- Nc1nc2c(ncn2Cc2ccccc2CCO)c(=O)[nH]1 — higher, > 100 µM
- CCC(=O)Nc1ccc(NS(=O)(=O)c2ccc(Cl)cc2)cc1 — higher, > 100 µM
- CC(O)CNC1=CC(=O)C(=O)c2ccccc21 (stereo unspecified) — 3.2-fold higher, 31.2 µM
- Fc1cccc(COc2ccc(Nc3ncnc4sc(-c5ccco5)cc34)cc2Cl)c1 — higher, > 25 µM
- O=C1/C(=C/c2ccncc2)C(n2cccc2)c2c(Br)sc(Br)c21 (stereo unspecified) — within 1.5-fold, 6.79 µM
- COc1cc2[nH]c(=O)c3cc(-c4ccccc4)cc4c(Cl)nc(c1OC)c2c43 — higher, > 91.5 µM
- Nc1c(S(N)(=O)=O)cc(S(N)(=O)=O)cc1S(N)(=O)=O — higher, > 100 µM
- COc1cc2cc(Oc3ccc(NC(=O)c4cccc(C(F)(F)F)c4)cc3)c(C)nc2cc1OC — higher, > 100 µM
- COc1cc(OC)cc(Oc2nc3cc(F)c(F)cc3nc2-c2ccccc2)c1 — higher, > 100 µM
- NS(=O)(=O)c1ccc(N2Cc3cc(Cl)ccc3OC3=C2C(=O)N(CC2CCCCC2)C3=O)cc1 — 2.4-fold lower, 4.11 µM
- C[C@H](c1ccccc1)N1C(=O)[C@@H](OCc2ccccc2)[C@H]1[C@H](COC(=O)COCc1ccccc1)OCc1ccccc1 — higher, > 100 µM
- C[N+]1(CCN=C=NC2CCCCC2)CCOCC1 — higher, > 100 µM
- C=C(C)C1CC2C(C)=C(OC(C)=O)C1n1c(=O)c3cc4ccccc4cc3c(=O)n12 (stereo unspecified) — higher, > 100 µM
- CC(C)N(C(=O)C12C3C4C1C1C2C3C41C(O)C(C)(C)C)C(C)C (stereo unspecified) — higher, > 50 µM
- CC(=O)C1(O)CCC2(O)C3(O)CC=C4CC(O)CCC4(C)C3CC(OC(=O)c3ccc(O)cc3)C12C (stereo unspecified) — higher, > 100 µM
- CCC1(Br)C(=O)NC(=O)N(C2CC(O)C(CO)O2)C1N=[N+]=[N-] (stereo unspecified) — higher, > 100 µM
- O=C(Sc1c(-c2ccccc2)c(=O)n(-c2ccccc2)c(=S)n1-c1ccccc1)c1ccco1 — higher, > 100 µM
- COC(=O)c1ccc2c(c1)C(NC(C)=O)CCc1cc(OC)c(OC)c(OC)c1-2 (stereo unspecified) — 2.3-fold higher, 22.7 µM
- CNC(=O)Nc1ccc(-c2nc(N3CCOCC3)nc3c2cnn3C2CCOCC2)cc1 — within 1.5-fold, 8.37 µM
- Nc1cc(N)c2nc(-c3ccccc3)c(Oc3ccc(F)cc3)nc2c1 — 3.8-fold higher, 36.9 µM
- C=C1C(=O)O[C@@H]2C[C@@]3(C)CC(=O)C=C(C)[C@@H]3C[C@H]12 — higher, > 100 µM
- Nc1nncc2[nH]cnc12 — higher, > 100 µM
- O=C1/C(=C/c2ccc(Cl)cc2)CCCc2ccc(F)cc21 — 6.6-fold higher, 64.1 µM
- CN(C)CCCNc1cc(O)c2c(c1O)C(=O)c1ccccc1C2=O — 2.5-fold higher, 24.1 µM
- CCCCCCc1cc2cc(-c3csc(-c4ccc(OC)cc4)n3)c(=O)oc2cc1O — 5.1-fold higher, 49.8 µM
- CCOC(=O)c1c(NC(=O)c2ccc(C(C)C)cc2)sc2c(CN(C)C)c(O)ccc12 — 2.1-fold lower, 4.51 µM
- Nc1cc2c3c(cccc3c1)NC2=O — higher, > 100 µM

`CN1CCCN(CCNc2nccc(-c3c(-c4cccc(O)c4)nc4sccn34)n2)S1(=O)=O` was tested, and the GI50 was 4.42 µM and 8.03 µM.

For `CN1CCCN(CCNc2nccc(-c3c(-c4cccc(O)c4)nc4sccn34)n2)S1(=O)=O`, the TGI was 75 µM and > 100 µM.

— PubChem BioAssay (NCI)
